Source: PubChem BioAssay (NCATS)
The inconclusive results got no clear call from the source; some entries with a clear call stand among them for comparison. A potency beside an inconclusive call is a rough fit, not a confirmed value. Active and inactive are the calls of the source. Calls come from the whole dose curve; as a rule, active = well fitted cell-killing curve with a large enough effect; inconclusive = small, poorly fitted or top-dose-only effect, or effect the other way; inactive = no such curve, though single readings can be large or run the other way.
Potency is the fitted concentration of half-maximal effect; tags give direction and shape of the fitted curve.

Assay: Viability qHTS for spleen associated tyrosine kinase inhibitor (SYKi) naive MV4-11 cells (AID 1963823); note: nearly all actives have a fitted effect of over 40% in size
Conditions: MV4-11 AML viability, CellTiter-Glo luminescence, 72 h; series mostly up to 45 µM
How it was run: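 Read-out: CellTiter-Glo luminescence. Exposure: 72 hr, 37 C, 5% CO2, 95% humidity. Cells: MV4-11 without SYK inhibitor history, 500/well, qHTS format.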
In the case of CCN[C@@H](C)Cc1ccccc1, the Potency is reported as inconclusive: 0.0043 µM [rising, full curve, poor fit].
For C[C@H]1C/C=C/[C@H]2[C@@H]3O[C@]3(C)[C@@H](C)[C@H]3[C@H](Cc4ccccc4)NC(=O)[C@]32OC(=O)O/C=C/[C@@](C)(O)C1=O, the Potency was inconclusive: 0.2 µM [cytotoxic, full curve].
In the case of CO[C@H]1[C@H](O)[C@H](O[C@H]2CC[C@]3(C=O)C4CC[C@]5(C)[C@H](C6=CC(=O)OC6)CC[C@]5(O)C4CC[C@@H]3C2)O[C@@H](C)[C@@H]1O (some centres not stated), the Potency is reported as inconclusive: 0.0399 µM [cytotoxic, full curve].
With C[C@H]1C(=O)O[C@H]2[C@H](O)[C@]34C5OC(=O)[C@]3(O[C@@H]3OC(=O)[C@H](O)C34[C@H](C(C)(C)C)[C@H]5O)C12O (some centres not stated) the Potency was “inactive”.
For C=CCN1CC[C@]23c4c5ccc(O)c4O[C@H]2C(=O)CC[C@@]3(O)[C@H]1C5, the Potency was “inactive”.
For C=C1[C@@H](O)[C@]2(O)OC[C@]34C2[C@]2(C)C(C[C@H]3OC(=O)[C@H](O)[C@@]14O)C(C)=CC(=O)[C@H]2O (some centres not stated), the Potency was inconclusive: 2.24 µM [cytotoxic, full curve].
For C[N@@+]1(CC2CC2)CC[C@]23c4c5ccc(O)c4O[C@H]2C(=O)CC[C@@]3(O)[C@H]1C5, the Potency was “inactive”.
With CC(C)C(=O)O[C@H]1[C@@H]2[C@H](C)C(=O)O[C@@H]2C[C@@H](C)[C@@H]2C=CC(=O)[C@]21C the Potency was active: 3.6 µM.
For C[C@]12CC[C@H]3[C@@H](CCC4=CC(=O)CC[C@@H]43)[C@@H]1CC[C@@H]2OC(=O)CCc1ccco1, the Potency was inconclusive: 18.8 µM [cytotoxic, partial curve, poor fit].
In the case of CC1OC(C)OC(C)O1 (configuration not stated), the Potency is reported as “inactive”.
For CN=C(NS(=O)(=O)c1ccc(Cl)cc1)N1C[C@H](c2ccccc2)C(c2ccc(Cl)cc2)=N1, the Potency was active: 20.6 µM.
In the case of CCC(C)(OC(C)=O)C(=O)O[C@H]1[C@H](OC(C)=O)C[C@@H]2[C@@](C)([C@@H]3C[C@H]4C=CO[C@H]4O3)[C@H](C)C[C@H](OC(C)=O)[C@@]2(COC(C)=O)[C@@]12CO2 (some centres not stated), the Potency is reported as “inactive”.
With CN1[C@@H]2CC[C@H]1CC(OC(=O)C1C=Nc3ccccc31)C2 (some centres not stated) the Potency was inconclusive: 20.6 µM [cytotoxic, single point].
With C[C@@]1(CO)[C@H](O)CC[C@@]2(C)[C@H]1CC[C@H]1C[C@@H]3C[C@@]12CC[C@]3(O)CO the Potency was active: 1.01 µM.
With Cn1ncnc1COc1nn2c(-c3c(F)cccc3F)nnc2cc1C1CCC1 the Potency was inconclusive: 23.1 µM [cytotoxic, single point].
For O=C(O)c1ccnc2cc(C(OCCN3CCCCC3)c3ccccc3Cl)[nH]c12 (configuration not stated), the Potency was “inactive”.
In the case of CC(=O)OC1CC(O)C(C)(C)C2CC(OC(C)=O)C3(C)C(CCC4(C)C(c5ccoc5)C(=O)C5OC543)C12C (configuration not stated), the Potency is reported as “inactive”.
In the case of CCCN1CCC[C@@H]2Cc3[nH]ncc3C[C@H]21, the Potency is reported as inconclusive: 1.06 µM [cytotoxic, full curve].
In the case of CC(=O)O[C@H]1C[C@@H](C)O[C@H]2O[C@@H]3CC4CC[C@@H]5C(CC[C@]6(C)[C@@H](C7=CC(=O)OC7)CC[C@]56O)[C@@]4(C=O)C[C@H]3O[C@]21O (some centres not stated), the Potency is reported as active: 0.0432 µM.
In the case of CN[C@H]1[C@H](O)[C@H](O[C@@H]2[C@@H](O)[C@H](O[C@H]3O[C@H]([C@H](C)O)[C@@H](O)[C@H](O)[C@H]3N)[C@@H](N)C[C@H]2N)OC[C@@]1(C)O, the Potency is reported as “inactive”.
With CC1=CC2/C=C(\C)CCC(O)C(O)C(O)CC(=O)C23C(=O)NC(CC(C)C)C3C1C (configuration not stated) the Potency was inconclusive: 3.17 µM [cytotoxic, partial curve].
With CC(C)NC(C)C the Potency was “inactive”.
With C#C[C@]1(O)CC[C@H]2[C@@H]3CCC4=CC(=O)CCC4=C3C=C[C@@]21CC the Potency was inconclusive: 29.9 µM [cytotoxic, single point].
For CCCCCn1cc(C(=O)Oc2cccc3cccnc23)c2ccccc21, the Potency was inconclusive: 23.1 µM [cytotoxic, single point].
With O=C(CBr)N1CC([N+](=O)[O-])([N+](=O)[O-])C1 the Potency was inconclusive: 34 µM [cytotoxic, partial curve].
With CC1Oc2cc3c(-c4c(O)cc(O)c5c(O)c6c(cc45)OC(C)C(C)C6=O)c(O)cc(O)c3c(O)c2C(=O)C1C (configuration not stated) the Potency was active: 5.17 µM.
With COP(=S)(OC)SCN1C(=O)c2ccccc2C1=O the Potency was inconclusive: 33.5 µM [cytotoxic, single point].
